According to paper PMC4336329 (PLoS ONE, 2015):
The campaign covered roughly 310,000 compounds. About 14,000 (4.5%) showed an effect of 50% or more. The effect is printed as a negative number. Some of the results follow.

The compounds below were run against human ether-à-go-go-related gene (hERG) potassium channel (human, UniProt Q12809) (assay: primary screen, population patch clamp on CHO cells stably expressing hERG).
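Also: peak tail current of the secondary pulse compared with the same well before compound.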

Chain of human ether-à-go-go-related gene (hERG) potassium channel (Q12809 whole entry, looked up): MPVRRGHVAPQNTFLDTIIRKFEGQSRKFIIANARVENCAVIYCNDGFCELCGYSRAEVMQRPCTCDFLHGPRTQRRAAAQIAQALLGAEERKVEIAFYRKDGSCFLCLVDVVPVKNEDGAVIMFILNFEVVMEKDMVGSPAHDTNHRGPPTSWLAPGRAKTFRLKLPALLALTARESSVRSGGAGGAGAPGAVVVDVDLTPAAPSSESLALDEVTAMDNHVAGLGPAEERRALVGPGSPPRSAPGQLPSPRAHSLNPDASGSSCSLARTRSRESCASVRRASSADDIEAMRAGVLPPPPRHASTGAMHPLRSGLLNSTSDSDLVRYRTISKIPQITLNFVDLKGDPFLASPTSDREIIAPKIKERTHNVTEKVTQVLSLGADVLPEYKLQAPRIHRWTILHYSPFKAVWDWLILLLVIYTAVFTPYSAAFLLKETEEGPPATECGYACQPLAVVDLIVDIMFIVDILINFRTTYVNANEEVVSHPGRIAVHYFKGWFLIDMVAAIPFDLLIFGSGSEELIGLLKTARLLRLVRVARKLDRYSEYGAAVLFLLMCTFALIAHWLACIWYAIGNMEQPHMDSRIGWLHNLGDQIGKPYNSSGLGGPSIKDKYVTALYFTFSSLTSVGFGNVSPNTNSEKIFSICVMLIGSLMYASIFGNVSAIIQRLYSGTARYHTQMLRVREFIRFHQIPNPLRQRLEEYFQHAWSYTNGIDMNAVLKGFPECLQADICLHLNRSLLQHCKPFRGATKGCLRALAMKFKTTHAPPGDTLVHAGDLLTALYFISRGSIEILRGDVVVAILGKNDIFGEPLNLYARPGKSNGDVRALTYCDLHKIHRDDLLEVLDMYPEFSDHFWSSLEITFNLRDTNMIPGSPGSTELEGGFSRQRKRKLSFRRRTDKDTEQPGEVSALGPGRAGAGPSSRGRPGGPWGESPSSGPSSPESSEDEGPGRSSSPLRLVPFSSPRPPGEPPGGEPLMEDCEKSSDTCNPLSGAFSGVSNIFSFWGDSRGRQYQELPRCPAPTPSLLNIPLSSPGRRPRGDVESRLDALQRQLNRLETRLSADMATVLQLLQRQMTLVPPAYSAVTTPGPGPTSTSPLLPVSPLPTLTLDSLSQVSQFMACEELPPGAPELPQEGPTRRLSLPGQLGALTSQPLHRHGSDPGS

Row | SMILES | hERG current change (%, negative = inhibition) at 10uM [%]
1 | CCN(CC(=O)Nc1ccc(NC(C)=O)cc1)C(=O)CC1OC(=O)c2ccccc21 (stereo not shown) | 5.6
2 | CSc1cc(/C=N/O)c(SC)s1 | -13.2
3 | Cc1c(NC(=O)C2Cc3ccccc3CN2C(=O)c2ccco2)c(=O)n(-c2ccccc2)n1C (stereo not shown) | -13.7
4 | O=C(NC(=S)Nc1cc(S(=O)(=O)N2CCOCC2)ccc1N1CCOCC1)C1CCCC1 | -17
5 | COc1ccccc1/C=C1\CCCC2=C1Nc1nnnn1C2c1ccccc1OC (stereo not shown) | 9
6 | CC[C@H](C)[C@H](NC(N)=O)C(=O)OCC(=O)NCc1ccc(Cl)cc1 | 16.8
7 | CN1CCC(OC(=O)c2ccco2)CC1.Cl | 0.374
8 | COc1ccc(-n2c(SCC#N)nc3c(sc(=S)n3-c3ccccc3)c2=O)c(OC)c1 | 18.1
9 | CCNC(=O)COc1cc(C)c(Cl)c(C)c1 | 0.136
10 | Cc1ccc(C(=O)NCCNC(=O)COc2ccccc2Cl)cn1 | 6.95
11 | CC(=O)Nc1ccc(SCCC2CCCCN2C)cc1 (stereo not shown) | 7.77
12 | O=C1C2C3C=CC(CNS(=O)(=O)c4ccccc4)(O3)C2C(=O)N1c1ccc(Cl)cc1 (stereo not shown) | -7.19
13 | Cc1ccc(C(=O)Nn2c(N)c(S(=O)(=O)c3ccc(C)cc3)c3nc4ccccc4nc32)cc1 | 0.488
14 | COc1cccc(CNC(=O)C(CC(C)C)NC(=O)c2ccccc2C)c1 (stereo not shown) | 22
15 | N/C(=N\N=C\c1ccco1)SC1CC(=O)N(c2ccc(C(=O)O)cc2)C1=O (stereo not shown) | 31.7
16 | O=C(c1ccccc1)c1ccc2nc(N3CCN(C(=O)c4ccco4)CC3)c3nncn3c2c1 | -45.1
17 | COc1ccc([C@H]2CC(=O)C=C(c3ccc(SC)cc3)C2)cc1 | 13.8
18 | COc1ccc(CNC(=O)c2cc3c(s2)CS(=O)C3)cc1 (stereo not shown) | 12
19 | CCOC(=O)c1cc(NC(=O)c2ccccc2)c(=O)oc1-c1ccccc1 | 3.33
20 | CC(=O)N/N=C\c1ccccc1OC/C=C/c1ccccc1 | 30.5
21 | O=C(Oc1cccnc1)c1cc(S(=O)(=O)N2CCCCC2)ccc1Cl | 12.5
22 | Cc1cc2c(cc1C)NC1=C(N2)OC(c2cccc(O)c2)C1=O (stereo not shown) | -2.04
23 | Cc1ccc(SCC(=O)Nc2ncc(C)s2)cc1 | -6.79

Row | SMILES | hERG current change (%, negative = inhibition) at 10uM [%]
24 | O=c1oc2ccccc2cc1-c1csc(Nc2nc3c(F)cccc3s2)n1 | 8.29
25 | COc1ccc(C(C)=O)cc1COC(=O)c1ccc2ccccc2n1 | -0.671
26 | N#Cc1cccc(-n2nnnc2-c2ccccn2)c1 | 13.3
27 | Cc1ccc(/C=C/C(=O)NCC2COc3ccccc3O2)o1 (stereo not shown) | -18.2
28 | Nc1c2c(nc3ccccc13)N(C1CCCCC1)CC2 | -65.6
29 | CC(C)(CSc1ncccn1)NS(=O)(=O)c1ccccc1 | 22.6
30 | CCN(c1ccccc1)S(=O)(=O)c1cc(NC(=O)COC(=O)C2CC2)ccc1Cl | -39.1
31 | CC1(C)CC(=O)C(C=NCCN2CCN(C(=O)Cc3ccccc3)CC2)=C(O)C1 | -24.8
32 | COc1ccc(C=O)cc1COc1ccccc1F | -7.67
33 | O=C(Nc1cccc2ccccc12)c1ccc(F)cc1 | 5.58
34 | O=C(NC(=S)NNC(=O)c1cccs1)c1ccccc1 | -15.4
35 | O=C(Nc1ccccc1)Oc1ccc[nH]c1=O | 21.4
36 | COc1ccc(-c2csc(N3C(=O)CNC3=S)n2)cc1 | 16.9
37 | N#CCCN(Cc1cccnc1)S(=O)(=O)c1ccc(S(=O)(=O)N2CCCCCC2)cc1 | -25
38 | C=Cn1ccnc1P(=S)(c1ccc(Cl)cc1)c1nccn1C=C | -2.53
39 | O=C(Cc1c(Cl)cccc1Cl)N1CCN(Cc2ccccc2)CC1 | -0.0324
40 | Cc1occc1C(=O)NCCCc1ccccc1 | 4.61
41 | CC(NC(=O)c1ccc2c(c1)OCO2)C(c1cccs1)N1CCN(c2ccccc2)CC1 (stereo not shown) | 3.68
42 | Cc1cccc(C(=O)NC2CC3CCCC(C2)N3C(=O)Nc2ccccc2)c1 (stereo not shown) | 17.6
43 | CC(C)CN1CCCC(N2CCN(c3cccc(Cl)c3)CC2)C1 (stereo not shown) | -21.5
44 | O=C(CSc1ncccn1)Nc1ccc2[nH]c(=O)[nH]c2c1 | 0.729
45 | O=C1CN=C(c2ccccc2Cl)c2cc(Br)ccc2N1 | -30.7
46 | CN(Cc1ccco1)c1ncnc2ccc(-c3ccccc3Cl)cc12 | 2.59

Row | SMILES | hERG current change (%, negative = inhibition) at 10uM [%]
47 | CCCCCN1CC(O)=C(c2nc(-c3ccc(Cl)cc3)cs2)C1=N | 11.4
48 | COc1ccc(-c2cc(C#N)nc(N3CCNCC3)n2)cc1 | -79.3
49 | CCN(CC)c1ccc(C(=O)OCC(=O)NC2CCCCC2C)cc1 (stereo not shown) | -0.411
50 | CC(C)C(CCNC(=O)CC(Cc1ccccc1)c1ccco1)c1ccco1 (stereo not shown) | -20
51 | Cc1ccc(NC(=O)C2CCCN2C(=O)OCc2ccccc2)c(O)c1 (stereo not shown) | 18
52 | CN(c1ccccc1)S(=O)(=O)c1nnc(NC(=O)COc2ccccc2F)s1 | 24.4
53 | CC(C)(C)S(=O)(=O)/C(C#N)=C/c1sccc1C1OCCO1 | 7.35
54 | Cc1ccc2cc(CN(CC3CCCO3)S(=O)(=O)c3ccccc3)c3nnnn3c2c1 (stereo not shown) | -28.6
55 | COc1cc(C(=O)Nc2ccccc2N2CCN(S(C)(=O)=O)CC2)cc(OC)c1OC | -29.9
56 | COc1ccc(CCNC(=O)C2CCN(C(=O)c3ccc([N+](=O)[O-])cc3)CC2)cc1 | -65.6
57 | CCOCCCN(C(=O)c1snc(C(N)=O)c1N)C(C(=O)NCCC(C)C)c1ccc(F)cc1 (stereo not shown) | -23.6
58 | Cc1c(C(=O)OCC(=O)c2ccc3c(c2)OCCO3)oc2ccccc12 | 4.75
59 | CCc1c(O)nc2sc3ccccc3n2c1=O | -0.902
60 | CS(=O)(=O)Nc1ccccc1C(=O)NCCSCc1ccccc1 | -1.17
61 | Cl.c1ccc2c(c1)CNC1(CCCCC1)C2 | -2.11
62 | CC(C)Cc1nnc(NC(=O)CCC(=O)Nc2ccccc2)s1 | 2.36
63 | CC(=O)Nc1cccc(C(=O)OCC(=O)NC(=O)c2ccccc2)c1 | -2.01
64 | COc1ccccc1CNC(=O)COC(=O)C1CC1 | 3.35
65 | N#CC(C#N)=Cc1cccn1-c1ccc(C(=O)O)cc1 | 15.5
66 | CCOC(=O)N1CCC(NC(=O)c2cc(C(=O)Nc3ccc(S(=O)(=O)N4CCCCC4)cc3)ccc2CO)CC1 | 34.2
67 | CCc1cc(=O)oc2cc(C)cc(OC(C)C(=O)NCc3ccccn3)c12 (stereo not shown) | -12.2
68 | O=C(N/N=C/CCc1ccccc1)c1ccc(CN2c3cccc4cccc(c34)S2(=O)=O)cc1 | -10.3
69 | CCCc1oc(C(=O)O)cc1CN1CCOCC1.Cl | 8.54

Row | SMILES | hERG current change (%, negative = inhibition) at 10uM [%]
70 | O=c1c2sccc2nc(SCc2cc(=O)n3ccccc3n2)n1-c1ccc(Br)cc1 | -32
71 | Cl.OC(CNCc1cccc(Cl)c1)c1ccccc1 (stereo not shown) | -2.32
72 | N/C(CN1CCCC1=O)=N\OC(=O)c1ccc(Cl)cc1 | -5.46
73 | COc1ccccc1C(=O)N1CCN(c2cccc(C(F)(F)F)c2)CC1 | -14
74 | O=C(Nc1ccc(Br)c(Br)c1)C1CCCO1 (stereo not shown) | 3.39
75 | NC(=O)NO | -3.92
76 | COC(=O)C1=C(c2ccc(-c3ccccc3)c(F)c2)C[C@@H]2CC[C@H]1N2C(=O)N1CCCCC1 | 31.3
77 | Cc1c(C(=O)OCCOC(C)C)[nH]c2c1C(=O)CC(C)(C)C2 | -4.9
78 | CN(Cc1cccc(F)c1)C(=O)c1ccc(S(=O)(=O)C(F)F)cc1 | -34.2
79 | CC1CCN(S(=O)(=O)c2ccccc2[N+](=O)[O-])CC1 | -11.4
80 | CCOc1ccc(CNC2CCCc3ccccc32)cc1.O=C(O)C(=O)O (stereo not shown) | -68.1
81 | O=C(NNC(=O)c1cc(OCC(F)(F)F)ccc1OCC(F)(F)F)c1cccc(C(F)(F)F)c1 | -17.4
82 | Cn1cc(C(=O)Cc2ccccc2)c2ccccc21 | -6.56
83 | COc1ccccc1NC(=O)CSc1nnc(-c2ccc(C)cc2)o1 | 0.209
84 | Cc1ccc(Cn2cccc(NC(=O)c3ccco3)c2=O)cc1 | 0.595
85 | CC1CCc2c(sc3nc4n(c(=O)c23)CCS4)C1 (stereo not shown) | -10.3
86 | CN1CCN(C(=O)c2cc(COc3ccccc3)on2)[C@@H](c2ccccc2)C1 | -8.4
87 | CC1(O)C[C@]2(C)N(O)C3CCCC[C@@H]3N2O1 (stereo partly shown) | 6.2
88 | O=c1[nH]snc1-c1c(Cl)cccc1Cl | 20
89 | COc1ccc(CNC(=O)COC(=O)/C=C/c2ccco2)cc1 | -10.5
90 | c1cn(CC2(Cn3ccnc3)COC2)cn1 | 2.07
91 | CCN(CC)S(=O)(=O)c1cc(NC(=O)Cc2ccsc2)ccc1C | -14
